This is one part of the list.

The first assay concerns HSkMC (human skeletal muscle cells). Kind of assay: cytotoxicity call (relative viability < 0.9). The conditions noted are these: 10 µM.
As for `COc1ccc([Si](C)(C)[C@@H]2[C@@H](CC(=O)N3CCC[C@H]3CO)O[C@]3(C(=O)N(Cc4ccc(N5C(=O)c6cccc7cccc5c67)cc4)c4ccccc43)[C@H]2C)cc1`, the cytotoxicity call was “inactive”. Same read-out and setting: the same measure for `CNC[C@@H]1OCCCC[C@H](C)Oc2ccc(NC(=O)c3ccncc3)cc2C(=O)N([C@@H](C)CO)C[C@@H]1C`: “inactive”. Still for that read-out and setting: the value for `CN(C)C(=O)Cn1c(=O)oc2ccccc21` was “inactive”; that for `CCCC[C@@H](O)c1ccccc1` was “inactive”; that for `C[C@@H]1CCCCO[C@H](CN(C)Cc2ccccc2)[C@@H](C)CN([C@H](C)CO)C(=O)c2cc(NS(=O)(=O)c3ccc(F)cc3)ccc2O1` was “inactive”. As for `CC(C)NC(=O)Nc1ccc2c(c1)CC(=O)N([C@@H](C)CO)C[C@H](C)[C@@H](CN(C)Cc1ccc(C(=O)O)cc1)O2`, the cytotoxicity call was “inactive”. The same measure, in the same setting: the value for `Cc1noc(C)c1NC(=O)Nc1ccc2c(c1)C(=O)N([C@H](C)CO)C[C@@H](C)[C@H](CN(C)Cc1ccc(Oc3ccccc3)cc1)O2` was “inactive”; that for `CC[C@H](C)n1ncn(-c2ccc(N3CCN(c4ccc(OC[C@H]5CO[C@](Cn6cncn6)(c6ccc(Cl)cc6Cl)O5)cc4)CC3)cc2)c1=O` was “active”; that for `COc1ccc(S(=O)(=O)N(C)C[C@@H]2Oc3ccc(NC(=O)NC(C)C)cc3CC(=O)N([C@@H](C)CO)C[C@@H]2C)cc1` was “inactive”. Still for that read-out and setting: the same measure for `CC(C)NC(=O)N(C)C[C@H]1Oc2ccc(NC(=O)CCC(F)(F)F)cc2CC(=O)N([C@H](C)CO)C[C@H]1C`: “inactive”; for `Cc1sccc1-c1csc(N)n1`: “inactive”; for `C[C@@H]1CCCCO[C@@H](CN(C)C(=O)NC2CCCCC2)[C@H](C)CN([C@@H](C)CO)C(=O)c2cc(NC(=O)Nc3cccc4ccccc34)ccc2O1`: “inactive”. Still for that read-out and setting: the value for `CC(=O)O[C@@H]1[C@@H](O)C[C@@]2(C)[C@@H](CC[C@@H](C)[C@@]23Cc2c(O)cc4c(c2O3)CN([C@@H](CCC(=O)O)C(=O)O)C4=O)C1(C)C` was “inactive”; that for `O=C(C[C@@H]1CC[C@@H]2[C@H](COC[C@H](O)CN2S(=O)(=O)c2ccc(Cl)cc2)O1)NCCN1CCCCC1` was “inactive”; that for `C[C@H]1CN([C@@H](C)CO)C(=O)c2cc(NC(=O)Cn3cnnn3)ccc2O[C@@H]1CN(C)S(C)(=O)=O` was “inactive”. `CN1CCN(C(=O)C[C@H]2CC[C@@H]3[C@H](COC[C@H](O)CN3C(=O)C3CC3)O2)CC1`: the cytotoxicity call was “inactive”. Same read-out and setting: the same measure for `Cc1noc(C)c1S(=O)(=O)N(C)C[C@@H]1OCCCC[C@@H](C)Oc2ccc(NS(C)(=O)=O)cc2C(=O)N([C@H](C)CO)C[C@H]1C`: “inactive”; for `Cc1cc(-c2ccc3ccccc3n2)nc2ccc3ccccc3c12`: “inactive”. Still for that read-out and setting: the value for `Cn1c(=O)c(=O)n(C)c2cc(S(=O)(=O)CCC(=O)NCc3ccccc3)ccc21` was “inactive”; that for `COc1ccccc1N1CCN(c2ncc(C(=O)N3CCN(c4cccc(Cl)c4)CC3)c3ccccc23)CC1` was “inactive”; that for `C=CC[C@H](CC(=O)N(CCO)Cc1ccccc1)C(=O)N[C@H](COC(=O)[C@@H](CC=C)Cc1ccc(F)cc1)Cc1c[nH]c2ccccc12` was “inactive”.

Take `C[C@@H]1CN([C@H](C)CO)C(=O)c2cccc(NC(=O)Nc3ccc(F)cc3)c2O[C@H]1CN(C)Cc1ccc(C(F)(F)F)cc1`: the cytotoxicity call was “inactive”.

Regarding `COc1ccc(CN(C)C[C@@H]2OCCCC[C@H](C)Oc3ccc(NC(=O)Nc4ccccc4)cc3C(=O)N([C@@H](C)CO)C[C@H]2C)cc1`, the cytotoxicity call is “inactive”. As for `COc1ccc(S(=O)(=O)N(C)C[C@@H]2Oc3ccc(N(C)C)cc3C(=O)N([C@H](C)CO)C[C@H]2C)cc1`, the cytotoxicity call is “inactive”. The same measure, in the same setting: the value for `CNC[C@@H]1OCCCC[C@@H](C)Oc2ccc(NC(=O)CCCN(C)C)cc2C(=O)N([C@H](C)CO)C[C@H]1C` was “inactive”; that for `Cc1noc(C)c1S(=O)(=O)N(C)C[C@@H]1Oc2ccc(NC(=O)Cc3ccccc3)cc2CC(=O)N([C@@H](C)CO)C[C@@H]1C` was “inactive”; that for `CC(CCC(=O)O)C1CCC2C3C(O)CC4CC(O)CCC4(C)C3CCC12C` (stereo not drawn) was “inactive”. The same measure, in the same setting: the value for `COc1ccc(/C=C2/NC(=O)NC2=O)cc1` was “inactive”.

The next assay has as its system S. aureus RN4220. Kind of assay: growth inhibition call (relative growth <= 0.2). As to conditions: 50 µM.
For `Cc1noc(C)c1S(=O)(=O)NC(C)C`, the growth inhibition call is “inactive”.

As to `C[C@H]1CN([C@@H](C)CO)C(=O)Cc2cc(NS(=O)(=O)c3ccccc3)ccc2O[C@@H]1CN(C)S(=O)(=O)c1cn(C)cn1`, the growth inhibition call was “inactive”. On the same count and under the same terms, the same measure for `Cc1ccc(S(=O)(=O)Nc2ccc3c(c2)C(=O)N([C@H](C)CO)C[C@H](C)[C@@H](CN(C)S(C)(=O)=O)OCCCC[C@@H](C)O3)cc1`: “inactive”; for `CN(C)C(=O)[C@H]1[C@H](CO)[C@H]2Cn3c(ccc(C4=CCCC4)c3=O)[C@@H]1N2S(=O)(=O)c1cn(C)cn1`: “inactive”. Still for that read-out and setting: the value for `C[C@@H]1CN([C@@H](C)CO)C(=O)c2cccc(NC(=O)c3cnccn3)c2O[C@@H]1CN(C)C(=O)Nc1ccccc1` was “inactive”.

In the case of `C[C@@H]1CCCCO[C@H](CN(C)Cc2ccccc2)[C@@H](C)CN([C@@H](C)CO)C(=O)c2cc(NS(=O)(=O)c3cccs3)ccc2O1`, the growth inhibition call was “inactive”. On the same count and under the same terms, the value for `CCCNC(=O)N1C[C@]2(CCN(CC2)S(=O)(=O)c2ccccc2)c2c(n(c3cc(ccc23)OC)C)[C@H]1CO` was “inactive”; that for `C[C@@H]1CN([C@H](C)CO)C(=O)c2cccc(NS(=O)(=O)c3ccc(Cl)cc3)c2O[C@H]1CN(C)Cc1ccc(Cl)c(Cl)c1` was “inactive”; that for `C[C@@H]1CCCCO[C@@H](CN(C)Cc2ccccc2)[C@@H](C)CN([C@H](C)CO)C(=O)c2cc(NC(=O)c3ccccc3)ccc2O1` was “inactive”. The same measure, in the same setting: the value for `Nc1ccc(-c2ccco2)cc1` was “inactive”.

As to `C[C@@H]1CN([C@@H](C)CO)C(=O)c2cc(C#Cc3ccccc3F)cnc2O[C@H]1CN(C)C(=O)Cc1ccncc1`, the growth inhibition call was “inactive”. Still for that read-out and setting: the value for `C[C@@H]1CN([C@@H](C)CO)S(=O)(=O)c2ccc(C#Cc3cccnc3)cc2O[C@@H]1CN(C)C(=O)Nc1ccc2c(c1)OCO2` was “inactive”; that for `COc1ccc([Si](C)(C)[C@@H]2[C@@H](CC(=O)N3CCC[C@H]3CO)O[C@]3(C(=O)N(Cc4ccc(N5C(=O)c6cccc7cccc5c67)cc4)c4ccccc43)[C@H]2C)cc1` was “inactive”. Same read-out and setting: the same measure for `CNC[C@@H]1OCCCC[C@H](C)Oc2ccc(NC(=O)c3ccncc3)cc2C(=O)N([C@@H](C)CO)C[C@@H]1C`: “inactive”. Turning to `CN(C)C(=O)Cn1c(=O)oc2ccccc21`, the growth inhibition call is “inactive”. Still for that read-out and setting: the value for `CCCC[C@@H](O)c1ccccc1` was “inactive”; that for `C[C@@H]1CCCCO[C@H](CN(C)Cc2ccccc2)[C@@H](C)CN([C@H](C)CO)C(=O)c2cc(NS(=O)(=O)c3ccc(F)cc3)ccc2O1` was “inactive”. On the same count and under the same terms, the same measure for `CC(C)NC(=O)Nc1ccc2c(c1)CC(=O)N([C@@H](C)CO)C[C@H](C)[C@@H](CN(C)Cc1ccc(C(=O)O)cc1)O2`: “inactive”. On the same count and under the same terms, the same measure for `Cc1noc(C)c1NC(=O)Nc1ccc2c(c1)C(=O)N([C@H](C)CO)C[C@@H](C)[C@H](CN(C)Cc1ccc(Oc3ccccc3)cc1)O2`: “inactive”; for `CC[C@H](C)n1ncn(-c2ccc(N3CCN(c4ccc(OC[C@H]5CO[C@](Cn6cncn6)(c6ccc(Cl)cc6Cl)O5)cc4)CC3)cc2)c1=O`: “inactive”; for `COc1ccc(S(=O)(=O)N(C)C[C@@H]2Oc3ccc(NC(=O)NC(C)C)cc3CC(=O)N([C@@H](C)CO)C[C@@H]2C)cc1`: “inactive”. In the case of `CC(C)NC(=O)N(C)C[C@H]1Oc2ccc(NC(=O)CCC(F)(F)F)cc2CC(=O)N([C@H](C)CO)C[C@H]1C`, the growth inhibition call is “inactive”. Same read-out and setting: the same measure for `Cc1sccc1-c1csc(N)n1`: “inactive”.

As for `C[C@@H]1CCCCO[C@@H](CN(C)C(=O)NC2CCCCC2)[C@H](C)CN([C@@H](C)CO)C(=O)c2cc(NC(=O)Nc3cccc4ccccc34)ccc2O1`, the growth inhibition call is “inactive”. As for `CC(=O)O[C@@H]1[C@@H](O)C[C@@]2(C)[C@@H](CC[C@@H](C)[C@@]23Cc2c(O)cc4c(c2O3)CN([C@@H](CCC(=O)O)C(=O)O)C4=O)C1(C)C`, the growth inhibition call was “inactive”. Still for that read-out and setting: the same measure for `O=C(C[C@@H]1CC[C@@H]2[C@H](COC[C@H](O)CN2S(=O)(=O)c2ccc(Cl)cc2)O1)NCCN1CCCCC1`: “inactive”. The same measure, in the same setting: the value for `C[C@H]1CN([C@@H](C)CO)C(=O)c2cc(NC(=O)Cn3cnnn3)ccc2O[C@@H]1CN(C)S(C)(=O)=O` was “inactive”. The same measure, in the same setting: the same measure for `CN1CCN(C(=O)C[C@H]2CC[C@@H]3[C@H](COC[C@H](O)CN3C(=O)C3CC3)O2)CC1`: “inactive”; for `Cc1noc(C)c1S(=O)(=O)N(C)C[C@@H]1OCCCC[C@@H](C)Oc2ccc(NS(C)(=O)=O)cc2C(=O)N([C@H](C)CO)C[C@H]1C`: “inactive”. For the molecule `Cc1cc(-c2ccc3ccccc3n2)nc2ccc3ccccc3c12`, the growth inhibition call was “inactive”.

For `Cn1c(=O)c(=O)n(C)c2cc(S(=O)(=O)CCC(=O)NCc3ccccc3)ccc21`, the growth inhibition call is “inactive”. The same measure, in the same setting: the same measure for `COc1ccccc1N1CCN(c2ncc(C(=O)N3CCN(c4cccc(Cl)c4)CC3)c3ccccc23)CC1`: “inactive”; for `C=CC[C@H](CC(=O)N(CCO)Cc1ccccc1)C(=O)N[C@H](COC(=O)[C@@H](CC=C)Cc1ccc(F)cc1)Cc1c[nH]c2ccccc12`: “inactive”. On the same count and under the same terms, the value for `C[C@@H]1CN([C@H](C)CO)C(=O)c2cccc(NC(=O)Nc3ccc(F)cc3)c2O[C@H]1CN(C)Cc1ccc(C(F)(F)F)cc1` was “inactive”; that for `COc1ccc(CN(C)C[C@@H]2OCCCC[C@H](C)Oc3ccc(NC(=O)Nc4ccccc4)cc3C(=O)N([C@@H](C)CO)C[C@H]2C)cc1` was “inactive”.

`COc1ccc(S(=O)(=O)N(C)C[C@@H]2Oc3ccc(N(C)C)cc3C(=O)N([C@H](C)CO)C[C@H]2C)cc1`: the growth inhibition call was “inactive”. Still for that read-out and setting: the same measure for `CNC[C@@H]1OCCCC[C@@H](C)Oc2ccc(NC(=O)CCCN(C)C)cc2C(=O)N([C@H](C)CO)C[C@H]1C`: “inactive”. Same read-out and setting: the same measure for `Cc1noc(C)c1S(=O)(=O)N(C)C[C@@H]1Oc2ccc(NC(=O)Cc3ccccc3)cc2CC(=O)N([C@@H](C)CO)C[C@@H]1C`: “inactive”; for `CC(CCC(=O)O)C1CCC2C3C(O)CC4CC(O)CCC4(C)C3CCC12C` (stereo not drawn): “inactive”.

For the molecule `COc1ccc(/C=C2/NC(=O)NC2=O)cc1`, the growth inhibition call is “inactive”.

These data come from the antibiotic and cytotoxicity screens of Wong et al. (2023).
